The values that follow come from ChEMBL document CHEMBL4888484, “Replenishing the malaria drug discovery pipeline: Screening and hit evaluation of the MMV Hit Generation Library 1 (HGL1) against asexual blood stage Plasmodium falciparum ,using a nano luciferase reporter read-out” (2022).

The structures appear in SMILES notation. About 540 (0.36%) of roughly 150,000 compounds showed an effect of 50% or more. This is one part of the list.

The subject of the test is Plasmodium falciparum. The experiment in a line: Primary screen in NF54 nanoGlo assay, in single point, at 2uM, 72h; a lower Z score goes with more inhibition. It is filed as functional, Erythrocyte. The settings on record: timepoint 72 hour.
For orientation: % Inhibition means the drop in the measured response relative to a control, in per cent. With `CCC(=O)N(CCN1CCOCC1)Cc1csc(COc2cc(C)cc(C)c2C)n1`, the “% Inhibition” value is -5% and the Z score was 0.64.

For `Cc1ccc2ncccc2c1CN1CCC[C@@](O)(CO)CC1`, the “% Inhibition” value was found to be 9% and the Z score is -1.77.

Take `OCc1nc(C2CCOCC2)nn1C1Cc2ccccc2C1`: the “% Inhibition” value is on record as -11% and the Z score was 1.33.

Regarding `Cc1cc(C(=O)NC2CCCCCCC2)no1`, the “% Inhibition” value is 2% and the Z score was -0.25.

For `CC1(CO)CCN(Cc2ccccc2OCCN2CCOCC2)CC1`, the “% Inhibition” value is given as -16% and the Z score is listed as 1.59.

Regarding `Cc1c(CC(=O)N2CCC[C@H]2C(N)=O)c2c(n1Cc1ccccc1)CCCC2=O`, the “% Inhibition” value came to 0% and the Z score is reported as -0.04.

For `Cc1cc(NC2CC(N3CCOCC3)C2)nc(C)n1` (stereo unspecified), the “% Inhibition” value is -21% and the Z score was 2.78.

Consider `Cc1nnc(CNC(C)(C)CN2CCOCC2)s1`, for which the “% Inhibition” value amounted to 4% and the Z score is given as -0.76.

Take `CCCN(Cc1cnn(C)c1)Cc1nnc(-c2ccc(F)cc2)o1`: the “% Inhibition” value is recorded as -7% and the Z score came out at 0.76.

Consider `COc1ccc(NC(=O)C(=O)NC[C@@H](c2cccn2C)N(C)C)c(OC)c1`, for which the “% Inhibition” value came to 0% and the Z score came out at 0.01.

As to `c1csc(N2CCC[C@H]2c2nc(-c3cncs3)no2)n1`, the “% Inhibition” value is on record as -12% and the Z score is given as 1.53.

With `Cc1ccnc(N2CC[C@@H](OC(C)(C)C)C2)n1`, the “% Inhibition” value was -5% and the Z score worked out at 0.61.

As to `CN(C)c1ccc(S(=O)(=O)N2CCC[C@H]2c2nc(N(C)C)no2)cn1`, the “% Inhibition” value was -3% and the Z score came out at 0.25.

Regarding `CCOCCCNC(=O)C1CCN(C(=O)c2cc3oc(C)cc3n2Cc2c(F)cccc2Cl)CC1`, the “% Inhibition” value is -1% and the Z score came out at 0.06.

As for `CCC1=NCC(=O)Nc2cc3c(cc21)OCCO3`, the “% Inhibition” value is listed as -15% and the Z score was determined as 1.88.

`Cc1ccc(C)c(OCCOCCNC(C)(C)C)c1`: the “% Inhibition” value is on record as 1% and the Z score is on record as -0.18.

As for `CN(CCOCCO)c1cccc(F)c1C#N`, the “% Inhibition” value is on record as 2% and the Z score was -0.26.

`Cc1cccc(Nc2nc(C)c(C(=O)NCC3CC3)s2)n1`: the “% Inhibition” value is given as -5% and the Z score worked out at 0.82.

In the case of `COCCCNC(=O)c1ccc(Cn2c(=O)c3ccccc3n(Cc3c(C)cc(C)cc3C)c2=O)cc1`, the “% Inhibition” value is on record as -18% and the Z score came to 2.05.

With `CC1=C(c2ccc(C)cc2)S(=O)(=O)N=C1N1CCCN(C(=O)[C@H]2CCOC2)CC1`, the “% Inhibition” value is on record as -12% and the Z score is listed as 1.96.

`Cc1ccc(C2=C[C@@H](c3ccc(Cl)cc3)n3nc(NC(=O)c4ccccc4)nc3N2)cc1`: the “% Inhibition” value was 84% and the Z score is given as -8.34.

For `Cc1ccc(NC(=O)CN2CCC[C@H](C)[C@@H]2CO)cc1C`, the “% Inhibition” value is -8% and the Z score was determined as 0.84.

As for `C[C@H](Cc1cn(C)nn1)NS(=O)(=O)CC1(C)CC1(Cl)Cl` (stereo partly specified), the “% Inhibition” value is given as -2% and the Z score amounted to 0.24.

Take `Cc1cnc(N2CC(C)[S+]([O-])C(C)C2)s1` (stereo unspecified): the “% Inhibition” value is -14% and the Z score worked out at 1.26.

In the case of `Cc1ccc(NC(=O)Nc2ccc(-c3nc4ccccc4s3)cc2C)cc1C`, the “% Inhibition” value is listed as -9% and the Z score is listed as 1.08.

Turning to `CC(=O)N1CCC2(CC1)C[C@@H](Cc1ccc(F)cc1)CCO2`, the “% Inhibition” value was found to be 19% and the Z score is -2.12.

On to `CC(C)S(=O)(=O)NC1=NCN(Cc2ccncc2)CN1`, for which the “% Inhibition” value was -5% and the Z score is recorded as 0.86.

Take `CC(=O)N1CCN(c2ccc(OCCCOc3ccccc3)cc2)CC1`: the “% Inhibition” value was -13% and the Z score is reported as 1.73.

In the case of `O=C(c1cnc(C2CC2)nc1)N1CC(O)CC1c1ccccc1` (stereo unspecified), the “% Inhibition” value is given as -12% and the Z score is 1.02.

For the molecule `CCn1cc(-c2cc(C(=O)N3CCCC[C@@H]3C)c3c(C)cc(C)cc3n2)cn1`, the “% Inhibition” value turned out to be 21% and the Z score is on record as -2.71.

As for `O=C(O)c1ccccc1CN1CC[C@H](c2ccccc2)[C@H](CO)C1`, the “% Inhibition” value was -5% and the Z score is recorded as 0.73.

With `Cc1cc(S(=O)(=O)NC(=O)CCC(C)C)c(C)o1`, the “% Inhibition” value was 38% and the Z score is on record as -5.16.

With `COCCn1nnnc1[C@@H]1CN(CC(=O)N2CCc3ccccc32)CCO1`, the “% Inhibition” value was -8% and the Z score came to 1.64.

For `Cc1cnc(CN2C[C@H](OC(C)C)[C@@H](O)C2)cn1`, the “% Inhibition” value was -9% and the Z score stood at 1.82.

As for `CCO[C@@H](C)C(=O)NCCCc1ncc[nH]1`, the “% Inhibition” value was -1% and the Z score is reported as 0.13.

`O=C(NCCN1CCc2ccccc2C1=O)c1cc[nH]c1C1CC1`: the “% Inhibition” value is -5% and the Z score is 0.7.

Regarding `N#Cc1nccnc1NCCc1cnn(-c2ccccc2)c1`, the “% Inhibition” value is reported as -8% and the Z score was 1.25.

In the case of `CCC1(CC)CCN(C(=O)Cc2ccc(-n3cnnc3)cc2)C1`, the “% Inhibition” value is -4% and the Z score turned out to be 0.83.

Regarding `CCn1nccc1C(=O)N1CCOc2ccc(NC(=O)COC)cc2C1`, the “% Inhibition” value is reported as -5% and the Z score is 0.99.

As to `CC1(C)CN(Cc2ccccc2)CCC1NC(=O)N1CCOC(C#N)C1` (stereo unspecified), the “% Inhibition” value is on record as -8% and the Z score is reported as 1.6.

Regarding `Cn1c(=O)c2ccccc2n(CC(=O)Nc2ccc3c(c2)CCC3)c1=O`, the “% Inhibition” value is recorded as -5% and the Z score is given as 0.78.

As for `N#CCN[C@H](c1cc(F)ccc1F)C1CC1`, the “% Inhibition” value is on record as -11% and the Z score stood at 1.54.

In the case of `CC1(CNC(=O)C2CCCOC2)CCN(C(=O)C2CCCOC2)C1` (stereo unspecified), the “% Inhibition” value came out at 13% and the Z score is reported as -1.77.
